The results in this text go back to the antibiotic and cytotoxicity screens of Wong et al. (2023).

The other results are listed elsewhere or left out.

For this test, the system named is S. aureus RN4220. In words: growth inhibition call (relative growth <= 0.2). The note with it: 50 µM.
As for `O=C(C[C@@H]1CC[C@H](NS(=O)(=O)c2ccccc2F)[C@H](CO)O1)NCCCN1CCOCC1`, the growth inhibition call was “inactive”.
As for `CC(OC1OCCN(C(C)c2nc(=O)[nH][nH]2)C1c1ccc(F)cc1)c1cc(C(F)(F)F)cc(C(F)(F)F)c1` (stereo not given), the growth inhibition call is “inactive”.
As for `O=C(C[C@@H]1CC[C@H]2[C@@H](COC[C@@H](O)CN2S(=O)(=O)c2ccccc2)O1)N[C@@H]1CCN(Cc2ccccc2)C1`, the entry is “inactive”.
As for `C[C@H](CO)N1C[C@H](C)[C@H](CN(C)C(=O)CN(C)C)Oc2ncc(C#CC(C)(C)O)cc2C1=O`, the entry is “inactive”; as for `COC(=O)C[C@H]1CC[C@H]2[C@@H](COC[C@H](O)CN2S(=O)(=O)c2cn(C)cn2)O1`, “inactive”.
As for `COc1ccc(S(=O)(=O)Nc2cccc3c2O[C@H](CN(C)S(=O)(=O)c2ccccc2)[C@@H](C)CN([C@H](C)CO)C3=O)cc1`, the entry is “inactive”; as for `C[C@@H]1CN([C@H](C)CO)C(=O)c2cc(NC(=O)C3CCOCC3)ccc2O[C@H]1CN(C)S(=O)(=O)c1ccc(Cl)cc1`, “inactive”; as for `CC(C)(C)[S@](=O)N1Cc2cc(C(=O)NCc3ccc4c(c3)OCO4)nc(-c3cccc(-c4cccnc4)c3)c2[C@@H]1CCO`, “inactive”.
With `C[C@H]1CN([C@@H](C)CO)C(=O)c2cccc(NS(=O)(=O)c3ccccc3)c2O[C@@H]1CN(C)S(=O)(=O)c1ccc(F)cc1`, the growth inhibition call is “inactive”.
As for `O=C(c1ccccc1Cl)n1c2ccccc2c2ccccc21`, the entry is “inactive”; as for `O=C(CN1CCOCC1)NCC[C@H]1CC[C@H](NC(=O)Cc2ccccn2)[C@H](CO)O1`, “inactive”.
As for `C[C@@H]1CCCCO[C@H](CN(C)C(=O)Nc2ccccc2)[C@@H](C)CN([C@H](C)CO)C(=O)c2cc(NS(=O)(=O)c3ccc(Cl)cc3)ccc2O1`, the entry is “inactive”; as for `CC(C)[C@@H](CO)N1C(=O)[C@@H]2[C@H]3C(=O)OCCC/C=C\[C@H]3O[C@]23C=CCN(c2ccc4ccccc4c2)C(=O)[C@@H]13`, “inactive”; as for `O=[N+]([O-])c1ccc(NCCO)c(OCCO)c1`, “inactive”.
For `N#C[C@@H]1C(=O)NC(=O)[C@@H](C#N)C12CCCC2`, the growth inhibition call was “inactive”.
As for `CS(=O)(=O)[C@H]1CCNC1`, the entry is “inactive”.
As for `O=C(C[C@@H]1CC[C@@H]2[C@H](COC[C@@H](O)CN2C(=O)Nc2cc(Cl)cc(Cl)c2)O1)N1CCOCC1`, the entry is “active”; as for `C[C@H](CO)N1C[C@H](C)[C@H](CN(C)S(=O)(=O)c2ccccc2)OCCCC[C@H](C)Oc2ccc(NS(=O)(=O)c3cn(C)cn3)cc2C1=O`, “inactive”.
As for `C[C@@H]1CN([C@@H](C)CO)C(=O)c2cc(NS(=O)(=O)c3cn(C)cn3)ccc2O[C@@H]1CN(C)CC1CCCCC1`, the entry is “inactive”.
As for `CC(C)NC(=O)N(C)C[C@H]1Oc2ccc(NS(=O)(=O)c3cccs3)cc2C(=O)N([C@H](C)CO)C[C@H]1C`, the growth inhibition call is “inactive”.
As for `C[C@@H]1CN([C@H](C)CO)S(=O)(=O)c2ccc(C#Cc3ccc(F)cc3)cc2O[C@H]1CN(C)S(=O)(=O)c1cn(C)cn1`, the entry is “inactive”; as for `CCNC(=O)C[C@@H]1CC[C@@H]2[C@@H](COc3ccc(NS(=O)(=O)c4ccccc4C)cc3C(=O)N2C)O1`, “inactive”.
As for `C[C@@H]1CCCCO[C@H](CN(C)C(=O)Nc2ccc(C(F)(F)F)cc2)[C@@H](C)CN([C@@H](C)CO)C(=O)c2cc(NC(=O)Cc3ccccc3)ccc2O1`, the entry is “inactive”; as for `C[C@H]1CN([C@@H](C)CO)C(=O)Cc2cc(NC(=O)CCN3CCOCC3)ccc2O[C@@H]1CN(C)C(=O)Nc1ccc(F)cc1`, “inactive”; as for `N[C@@H]1CCCN(c2c(/C=C3\SC(=O)NC3=O)cccc2-c2ccccc2)C1`, “inactive”.
As for `NCC1CCN(S(=O)(=O)C2CC2)CC1`, the entry is “inactive”; as for `C1CNCCN1`, “inactive”.
As to `COc1ccc(S(=O)(=O)N(C)C[C@H]2Oc3c(NC(=O)C4CCOCC4)cccc3C(=O)N([C@H](C)CO)C[C@H]2C)cc1`, the growth inhibition call is “inactive”.
As for `C[C@H](CO)N1C[C@H](C)[C@@H](CN(C)Cc2ccc(Cl)c(Cl)c2)Oc2ccc(NC(=O)Nc3ccc(C(F)(F)F)cc3)cc2C1=O`, the growth inhibition call was “inactive”.
As for `COc1ccc2occ(C(C)=O)c2c1`, the entry is “inactive”.
